Source: the supplement of paper PMC7335073
The full ranking holds about 4,100 sequences; the median of “relative CpG methylation activity (normalised to average over all NNNCGNNN flanks)” is about 0.94, and the highest 2% start at about 1.9. The list shows a part of the results.

The sequences below were run against DNMT3B catalytic domain (mouse) (UniProt O88509) (assay: relative CpG methylation activity (normalised to average over all NNNCGNNN flanks) (relative (1 = mean)); higher = more methylation of the central CpG). Conditions: system: in vitro, murine catalytic domain; CpG state: hemimethylated substrate pool; residues: 558-859.
Sequence of UniProt O88509 (O88509 558-859): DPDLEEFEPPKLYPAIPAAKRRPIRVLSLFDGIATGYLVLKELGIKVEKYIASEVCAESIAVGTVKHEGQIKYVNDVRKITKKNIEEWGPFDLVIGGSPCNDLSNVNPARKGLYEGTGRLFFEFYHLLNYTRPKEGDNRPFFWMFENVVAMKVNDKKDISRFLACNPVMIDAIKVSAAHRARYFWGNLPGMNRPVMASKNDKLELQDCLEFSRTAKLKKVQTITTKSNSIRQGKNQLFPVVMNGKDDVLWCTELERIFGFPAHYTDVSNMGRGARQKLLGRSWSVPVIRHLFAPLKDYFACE
Description: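 Deep enzymology: a pool of dsDNA substrates with a central CpG flanked by 10 random nucleotides on each side was methylated by the murine DNMT3A or DNMT3B catalytic domain (0.8 mM SAM, 37 °C, 60 min). Methylation was then read out by hairpin ligation, bisulfite conversion and NGS. Values are the average methylation of each NNNCGNNN context (±3 flanks; the outer flanks are random and averaged over), normalised to the overall mean, so 1 = average activity.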

Sequence | relative CpG methylation activity
TGGCGCGT | 0.532
ACCCGAGT | 1.27
CCGCGTTG | 0.398
ACTCGGGC | 1.34
AACCGGCA | 1.16
GAGCGTTT | 0.407
GGGCGCAT | 0.278
GCACGACG | 1.18
GGGCGGGA | 0.521
TCCCGTGG | 0.0283
GGCCGGCT | 1.11
TCCCGTCC | 1.26
CCGCGCCC | 0.962
ATACGTGA | 0.906
CCTCGGTA | 1.03
TGCCGAAT | 0.836
CAGCGAGT | 1.12
ATCCGTTT | 0.735
CGGCGCGG | 0.289
TGACGGTG | 1.01
CGCCGTCA | 0.269
GAGCGCGA | 0.336
CATCGCCA | 0.973
GTGCGGAC | 0.92
CGCCGTGC | 0.492

Sequence | relative CpG methylation activity
GAACGGGT | 1.54
TCGCGTGA | 0.494
GCTCGCGA | 0.311
GTTCGTGG | 0.265
ACACGCAC | 1.06
TAACGTCC | 1.38
ATCCGCCC | 1.08
AGACGTAC | 1.17
ATGCGGAG | 0.568
GACCGGGT | 1.03
GACCGGTC | 0.988
ACACGGAC | 1.29
TTTCGCAT | 0.584
GGCCGGTC | 0.895
AACCGTAC | 0.73
CCCCGTTC | 1.19
CACCGAAC | 1.33
TGGCGTTG | 0.449
TGGCGTAA | 0.24
AGGCGTGA | 0.289
AACCGATC | 1.4
CTCCGGCC | 1.94
TAACGGCT | 1.88
CTACGTAC | 1.62
CGGCGCAT | 0.389

Sequence | relative CpG methylation activity
AAGCGTCC | 0.891
ACGCGTCC | 1.01
CTTCGCCA | 1.57
AGGCGCAT | 0.199
TCGCGTAT | 0.515
GTACGCAA | 0.97
ATTCGTCT | 0.718
GTACGGGG | 1.6
GTGCGGCT | 1.34
TCTCGATT | 1.38
TATCGGTC | 1.34
CCTCGAAC | 1.35
AAGCGGAA | 0.312
CCTCGTGA | 0.546
AACCGAAC | 1.13
CCCCGCGC | 1.05
GCCCGGGA | 1.37
CACCGTTT | 0.307
AACCGACA | 0.856
ACACGGGA | 1.44
AGCCGTGA | 0.101
CAACGAAA | 1.52
GGTCGATG | 1.1
TAGCGTTC | 0.626
TTTCGCGC | 1.18

Sequence | relative CpG methylation activity
AGGCGGCT | 0.919
CAACGTAC | 1.36
CTGCGGAA | 0.922
GTTCGTCC | 0.787
GTACGGCT | 1.56
GATCGGCC | 1.52
TCACGCAG | 0.781
ATGCGTGC | 0.609
TGACGTTT | 0.658
GAGCGTGA | 0.365
TCACGACG | 1.28
ACTCGGTT | 1.23
TACCGCGT | 0.29
ACTCGGGA | 1.25
GGTCGTAG | 0.202
TAGCGATA | 1.43
AGGCGAAA | 0.81
CGGCGACT | 0.758
AAGCGAAC | 1.05
ATTCGTGT | 0.216
ATACGACC | 1.86
GGGCGAAC | 0.804
CACCGGAC | 0.86
TACCGGGC | 1.17
TCGCGTTT | 0.521

Sequence | relative CpG methylation activity
GAACGTAA | 0.809
GTTCGAAG | 0.967
CATCGTTA | 0.653
TAACGAAG | 1.24
GCGCGAAT | 0.74
GCACGGAG | 0.69
AGACGTCG | 0.872
TTCCGGTC | 2.04
TGTCGGTC | 1.29
TCACGTCT | 1.13
CCTCGAAT | 1.3
GCACGGCC | 1.77
CCCCGCAT | 0.57
ACGCGATG | 0.919
TCGCGTCT | 0.77
AGGCGGTT | 0.694
TTACGGGG | 2
GCTCGACC | 1.25
GTCCGCCC | 1.03
GGGCGGGT | 0.481
GAACGTAT | 1.09
ACCCGACC | 1.38
GATCGACC | 1.11
CCGCGTCT | 0.792
GACCGAGT | 1.31

Sequence | relative CpG methylation activity
CAACGTGT | 0.579
TGACGCGA | 0.69
GCACGGTA | 1.26
GCCCGCAC | 0.864
GTCCGAAT | 1.46
ACTCGGAG | 0.713
GCCCGGAC | 1.05
ACTCGCTA | 0.804
TATCGAAG | 1.09
AACCGTTC | 0.501
AGTCGAAT | 1.38
ATACGAAC | 1.89
CATCGAAC | 1.6
GTACGTAT | 1.14
ACGCGATC | 1.25
GTCCGAAG | 1.08
TAGCGCTC | 0.768
CCCCGAAA | 1.45
AATCGTCG | 0.465
ACACGCCT | 1.47
GGCCGAGC | 1.53
CCCCGAGA | 1.68
TTACGGTG | 1.52
CTTCGCGG | 1.18
GCCCGACA | 1.39

Sequence | relative CpG methylation activity
AACCGATG | 0.997
ACTCGTAC | 1.09
GCGCGCCG | 0.924
CCCCGATA | 1.57
ATCCGATC | 1.48
ATCCGCCA | 0.876
CGCCGTTA | 0.216
CGTCGTCT | 0.592
CAGCGCCC | 1.01
GTCCGCAG | 0.521
CTCCGTTC | 1.22
GAACGAAG | 1.23
ATCCGCGG | 0.648
CTTCGCAG | 0.611
AATCGAGT | 1.64
TTTCGTGG | 0.36
GATCGCAC | 0.67
TTGCGGCG | 1.66
CGCCGGGT | 0.899
CGTCGATA | 1.84
CGCCGGAG | 0.167
CTTCGGTC | 1.47
GGCCGTTG | 0.0342
TCACGCTG | 1.17
ACGCGTTG | 0.312

Sequence | relative CpG methylation activity
ATCCGGCT | 1.8
TAACGATC | 1.83
CATCGACC | 1.6
GCACGTTA | 0.752
CGTCGTAA | 0.361
GTTCGGTG | 1.46
CGACGTTG | 0.363
CAGCGTCG | 0.906
ACACGAAG | 1.24
GAACGCTT | 1.15
ATACGAGG | 1.72
AGCCGCGA | 0.139
GGACGATA | 1.24
CGTCGCGC | 0.747
ACTCGCCG | 0.707
TAGCGGCG | 0.863
ACCCGGGT | 1.29
TAACGGAA | 1.18
AAACGCCC | 1.42
TCTCGGGA | 1.11
TGTCGGGG | 1.21
TAGCGGCT | 1.24
TGACGCCT | 1.11
CGCCGCGC | 0.355
TATCGCAA | 0.42

Sequence | relative CpG methylation activity
GCGCGCCA | 0.631
CCTCGCAA | 0.594
ACTCGATC | 1.62
ACTCGGGT | 1.11
CTCCGGAG | 1.54
GAACGAGG | 1.03
AGCCGCTC | 0.441
TAGCGGTC | 1.12
AGCCGCTG | 0.34
ACCCGTGA | 0.269
ATTCGACT | 1.43
TTGCGATA | 1.44
ACTCGAGC | 1.74
TAGCGTTA | 0.445
GATCGCCT | 0.763
CCCCGAAC | 1.48
TGTCGCCC | 0.734
ACACGGGG | 1.39
GGACGACA | 0.966
GTGCGCCG | 1.1
CCGCGGAC | 1.06
TCTCGATC | 1.65
GTTCGATT | 1.32
ACTCGTGT | 0.208
AATCGGGT | 1.35

Sequence | relative CpG methylation activity
CGCCGGCG | 1.48
GTTCGCAA | 0.436
CTGCGGCC | 1.22
CTGCGGGC | 1.53
GCTCGCTG | 0.49
TGTCGGTT | 1.27
AAGCGGAT | 0.521
GTTCGGCA | 1.88
TTACGAGT | 1.74
TCCCGCAT | 0.586
TCTCGAAT | 1.29
AACCGCGA | 0.144
AGACGTAA | 0.499
AACCGAAG | 0.648
CATCGCCC | 1.16
CCACGCAT | 0.811
GCTCGGGA | 1.17
TGACGACG | 1
CCACGATA | 1.7
AGACGATT | 1.57
GCGCGACC | 0.868
GGTCGCTG | 0.526
ATACGTCG | 1.35
CCGCGGAG | 0.533
CTCCGCGG | 1.01

Sequence | relative CpG methylation activity
AAACGGCA | 1.91
GATCGACA | 1.09
ATTCGCTC | 1.05
TGACGGCG | 1.63
CTGCGACG | 1.2
GTACGCCG | 1.56
ATTCGTAC | 1.14
TCCCGAGC | 2.01
GTGCGTGG | 0.694
AGCCGCAT | 0.147
TTTCGACA | 1.5
TCGCGCTA | 0.593
CGCCGTCG | 0.279
CATCGGTC | 1.63
TCCCGATC | 1.71
TATCGAAA | 1.23
GCTCGCAC | 0.632
TATCGACG | 1.28
TCACGAGC | 1.65
GAACGACG | 1.07
CTCCGAAG | 1.4
AATCGTGG | 0.186
AGACGACG | 1.02
GGTCGGGC | 1.65
TATCGCTG | 0.608

Sequence | relative CpG methylation activity
ATACGGGC | 1.93
TACCGCCG | 0.618
AAACGTAT | 0.956
AGGCGGCC | 0.708
GAGCGCGC | 0.865
TTCCGCCG | 1.36
CTCCGCTT | 1.09
GCTCGAGC | 1.34
ACCCGGCG | 1.53
ACGCGAAT | 0.868
GAGCGGGG | 0.694
AGTCGGTG | 0.863
TTGCGTCC | 1.16
GGACGATG | 1.08
TGGCGACG | 0.659
CCCCGCCA | 0.894
AGGCGTCG | 0.311
TGTCGCTT | 0.573
AATCGGAC | 1.01
CAGCGGCA | 1.1
GTGCGAAC | 1.32
CCCCGTGC | 1.1
CAACGCGA | 0.965
GAACGAGA | 1.76
AAACGTCA | 0.985

Sequence | relative CpG methylation activity
ATTCGGTC | 1.55
GCCCGCGT | 0.48
TTGCGGCA | 1.7
CCACGACA | 1.48
ACGCGGCA | 1.35
TAACGGAG | 0.992
GAGCGGTT | 0.833
TCACGCAT | 0.823
CCGCGAGT | 1.14
TTACGGGA | 1.92
ACACGTAT | 0.757
CATCGGCT | 1.78
TAGCGGTA | 0.636
TGCCGTGT | 0.151
AGACGCTT | 1.15
ACGCGGCG | 1.29
GGTCGCGC | 0.733
CCGCGATT | 1.01
TGACGTCA | 0.54
TGTCGATG | 1.3
AGTCGCCA | 0.76
CATCGTCG | 0.688
TCTCGCCT | 0.899
CTACGTCG | 1.37
ATACGTAG | 0.881

Sequence | relative CpG methylation activity
TCTCGTAA | 0.489
AAACGTAC | 1.14
ATGCGTAT | 0.627
TGTCGGAT | 0.902
GCCCGAAT | 1.3
GGTCGAAG | 0.845
CTTCGTAC | 1.16
AAACGTAG | 0.869
ACCCGCCT | 0.833
ATCCGTTA | 0.67
GAACGCAC | 1.11
GTACGCGA | 1.14
AAACGGGG | 1.56
CTACGCAG | 0.984
AGCCGCGG | 0.144
ATTCGACA | 1.51
GGACGAGT | 1.33
GGCCGGTG | 0.833
TGACGTAA | 0.541
